{"source": "the supplement of paper PMC7125110", "parents": {"B1": {"name": "glmS ribozyme (parent)", "chain": "AUAAAAGCGCCAGAACUACAGAAAUGUAGUUGACGAGGAGGAGGUUUAUCGAAUUUUCGGCGGAUGCCUCCAAA"}}, "note": "± gives the standard error. Variants at the background level are over-represented here.", "data": [{"variants_of": "B1", "assay": "self-cleavage kobs at 160 uM GlcN6P; higher = faster cleavage; RNA array", "conditions": "with glucosamine-6-phosphate", "procedure,_shortened": "(§1)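 Glucosamine-6-phosphate in HEPES/KCl/Mg(OAc)2 buffer, at 40 μM to 10 mM, was flowed over barcoded ribozyme variants transcribed in situ by E. coli RNA polymerase on sequenced MiSeq chips. Tracking was through a hybridised Cy3 probe at 37 °C. kobs, kcat and KM came from exponential decay fits and weighted Michaelis–Menten fits of normalised per-tile medians.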", "units": {"self-cleavage kobs at 160 uM GlcN6P": "s⁻¹"}, "values": [{"variant": "A33C C58G", "self-cleavage kobs at 160 uM GlcN6P": "< 1e-05"}, {"variant": "A48C C50A A52G", "self-cleavage kobs at 160 uM GlcN6P": "< 1e-05"}, {"variant": "A14C A36C A39U U49A C67U", "self-cleavage kobs at 160 uM GlcN6P": "< 1e-05"}, {"variant": "G32U G43U C61A", "self-cleavage kobs at 160 uM GlcN6P": "< 1e-05"}, {"variant": "G37C U47C A52U", "self-cleavage kobs at 160 uM GlcN6P": "< 1e-05"}, {"variant": "A15G C34U G63A", "self-cleavage kobs at 160 uM GlcN6P": "< 1e-05"}, {"variant": "C8G G9C A36G", "self-cleavage kobs at 160 uM GlcN6P": "< 1e-05"}, {"variant": "G13A G44U U47C", "self-cleavage kobs at 160 uM GlcN6P": "< 1e-05"}, {"variant": "C10A G35U U56C", "self-cleavage kobs at 160 uM GlcN6P": "< 1e-05"}, {"variant": "G59A G63A", "self-cleavage kobs at 160 uM GlcN6P": "< 1e-05"}, {"variant": "U46G U55G G60C", "self-cleavage kobs at 160 uM GlcN6P": "< 1e-05"}, {"variant": "C10U U49G U56A", "self-cleavage kobs at 160 uM GlcN6P": "< 1e-05"}, {"variant": "U31C U55A G59C", "self-cleavage kobs at 160 uM GlcN6P": "< 1e-05"}, {"variant": "C10A C16U G60U C61A", "self-cleavage kobs at 160 uM GlcN6P": "< 1e-05"}, {"variant": "C8U G13U U46A", "self-cleavage kobs at 160 uM GlcN6P": "< 1e-05"}, {"variant": "C16G U31C G35U A64C", "self-cleavage kobs at 160 uM GlcN6P": "< 1e-05"}, {"variant": "A12G G32A A36G", "self-cleavage kobs at 160 uM GlcN6P": "< 1e-05"}, {"variant": "U45G U49G C70A C71G", "self-cleavage kobs at 160 uM GlcN6P": "< 1e-05"}, {"variant": "U45A U49A C61U C67A", "self-cleavage kobs at 160 uM GlcN6P": "< 1e-05"}, {"variant": "A36C A39U", "self-cleavage kobs at 160 uM GlcN6P": "< 1e-05"}, {"variant": "G32A C34U G44A", "self-cleavage kobs at 160 uM GlcN6P": "< 1e-05"}, {"variant": "U54C U56A G59C U65A", "self-cleavage kobs at 160 uM GlcN6P": "< 1e-05"}, {"variant": "G35U U45A", "self-cleavage kobs at 160 uM GlcN6P": "< 1e-05"}, {"variant": "G9C A33G A42U", "self-cleavage kobs at 160 uM GlcN6P": "< 1e-05"}, {"variant": "G29C G37U", "self-cleavage kobs at 160 uM GlcN6P": "< 1e-05"}, {"variant": "A33C U47A G59U U65G", "self-cleavage kobs at 160 uM GlcN6P": "< 1e-05"}, {"variant": "G35A C70A", "self-cleavage kobs at 160 uM GlcN6P": "< 1e-05"}, {"variant": "C50A U55C A64G", "self-cleavage kobs at 160 uM GlcN6P": "< 1e-05"}, {"variant": "A33U U45A A52U G59U C61U", "self-cleavage kobs at 160 uM GlcN6P": "< 1e-05"}, {"variant": "U54A G60U", "self-cleavage kobs at 160 uM GlcN6P": "< 1e-05"}, {"variant": "A12U G13U A36G A39C G51C C67A C71U", "self-cleavage kobs at 160 uM GlcN6P": "< 1e-05"}, {"variant": "C8G G62C", "self-cleavage kobs at 160 uM GlcN6P": "< 1e-05"}, {"variant": "C34G U56A", "self-cleavage kobs at 160 uM GlcN6P": "< 1e-05"}, {"variant": "G44U U46C", "self-cleavage kobs at 160 uM GlcN6P": "< 1e-05"}, {"variant": "G38U G43U U65C", "self-cleavage kobs at 160 uM GlcN6P": "< 1e-05"}]}, {"variants_of": "B1", "assay": "self-cleavage kobs at 2500 uM GlcN6P; higher = faster cleavage; RNA array", "conditions": "with glucosamine-6-phosphate", "procedure,_shortened": "as §1", "units": {"self-cleavage kobs at 2500 uM GlcN6P": "s⁻¹"}, "values": [{"variant": "A6G G13U G40A C71U", "self-cleavage kobs at 2500 uM GlcN6P": "< 1e-05"}, {"variant": "C8G C16G G63U", "self-cleavage kobs at 2500 uM GlcN6P": "< 1e-05"}, {"variant": "A48C C50A A52G", "self-cleavage kobs at 2500 uM GlcN6P": "< 1e-05"}, {"variant": "A6G A15U U57G", "self-cleavage kobs at 2500 uM GlcN6P": "< 1e-05"}, {"variant": "C8G G29A A39U C70U C71U", "self-cleavage kobs at 2500 uM GlcN6P": "< 1e-05"}, {"variant": "G9A A52U G62C", "self-cleavage kobs at 2500 uM GlcN6P": "< 1e-05"}, {"variant": "A6U C8A U56A", "self-cleavage kobs at 2500 uM GlcN6P": "< 1e-05"}, {"variant": "C8G G9C A36G", "self-cleavage kobs at 2500 uM GlcN6P": "< 1e-05"}, {"variant": "G7U G51U G63C", "self-cleavage kobs at 2500 uM GlcN6P": "< 1e-05"}, {"variant": "C8G U31G G66A", "self-cleavage kobs at 2500 uM GlcN6P": "< 1e-05"}, {"variant": "C8U A48C G51A U69A", "self-cleavage kobs at 2500 uM GlcN6P": "< 1e-05"}, {"variant": "G7C G38U U54C U56A C71U", "self-cleavage kobs at 2500 uM GlcN6P": "< 1e-05"}, {"variant": "G13A G44U U47C", "self-cleavage kobs at 2500 uM GlcN6P": "< 1e-05"}, {"variant": "C8U G43U A53G", "self-cleavage kobs at 2500 uM GlcN6P": "< 1e-05"}, {"variant": "G7C C10U G44U G51U A64G U65G", "self-cleavage kobs at 2500 uM GlcN6P": "< 1e-05"}, {"variant": "C8A C16G G38A A64G C68A", "self-cleavage kobs at 2500 uM GlcN6P": "< 1e-05"}, {"variant": "G7U C10G G59U", "self-cleavage kobs at 2500 uM GlcN6P": "< 1e-05"}, {"variant": "C10A G35U U56C", "self-cleavage kobs at 2500 uM GlcN6P": "< 1e-05"}, {"variant": "U46G U55G G60C", "self-cleavage kobs at 2500 uM GlcN6P": "< 1e-05"}, {"variant": "G7U G13A G38A U55A", "self-cleavage kobs at 2500 uM GlcN6P": "< 1e-05"}, {"variant": "G7U A12C A14G U45G", "self-cleavage kobs at 2500 uM GlcN6P": "< 1e-05"}, {"variant": "C8U G51C C70G", "self-cleavage kobs at 2500 uM GlcN6P": "< 1e-05"}, {"variant": "C8A A36U C58G C71U", "self-cleavage kobs at 2500 uM GlcN6P": "< 1e-05"}, {"variant": "C10A C16U G60U C61A", "self-cleavage kobs at 2500 uM GlcN6P": "< 1e-05"}, {"variant": "G7A G13A C34U", "self-cleavage kobs at 2500 uM GlcN6P": "< 1e-05"}, {"variant": "G7C C8G A39U U47A A53U", "self-cleavage kobs at 2500 uM GlcN6P": "< 1e-05"}, {"variant": "C8U C34U U46G", "self-cleavage kobs at 2500 uM GlcN6P": "< 1e-05"}, {"variant": "C8U G13U U46A", "self-cleavage kobs at 2500 uM GlcN6P": "< 1e-05"}, {"variant": "C16G U31C G35U A64C", "self-cleavage kobs at 2500 uM GlcN6P": "< 1e-05"}, {"variant": "A4U A33U C68G", "self-cleavage kobs at 2500 uM GlcN6P": "< 1e-05"}, {"variant": "U45A U49A C61U C67A", "self-cleavage kobs at 2500 uM GlcN6P": "< 1e-05"}, {"variant": "A36C A39U", "self-cleavage kobs at 2500 uM GlcN6P": "< 1e-05"}, {"variant": "G32A C34U G44A", "self-cleavage kobs at 2500 uM GlcN6P": "< 1e-05"}, {"variant": "U54C U56A G59C U65A", "self-cleavage kobs at 2500 uM GlcN6P": "< 1e-05"}, {"variant": "G35U U45A", "self-cleavage kobs at 2500 uM GlcN6P": "< 1e-05"}, {"variant": "G7A G44C A48G", "self-cleavage kobs at 2500 uM GlcN6P": "< 1e-05"}, {"variant": "A6C G35U A36G A52C U54A", "self-cleavage kobs at 2500 uM GlcN6P": "< 1e-05"}, {"variant": "A6G A14U A48C", "self-cleavage kobs at 2500 uM GlcN6P": "< 1e-05"}, {"variant": "G7U A14U U46A A53U C61A", "self-cleavage kobs at 2500 uM GlcN6P": "< 1e-05"}, {"variant": "G9C A33G A42U", "self-cleavage kobs at 2500 uM GlcN6P": "< 1e-05"}, {"variant": "A6G A36G A39C G59A C61U", "self-cleavage kobs at 2500 uM GlcN6P": "< 1e-05"}, {"variant": "C8A A53C C70U", "self-cleavage kobs at 2500 uM GlcN6P": "< 1e-05"}, {"variant": "C8G A15U G35C G37C A42C", "self-cleavage kobs at 2500 uM GlcN6P": "< 1e-05"}, {"variant": "A6C U30G U49G U65G", "self-cleavage kobs at 2500 uM GlcN6P": "< 1e-05"}, {"variant": "C8A A33U G44U U55A U57G", "self-cleavage kobs at 2500 uM GlcN6P": "< 1e-05"}, {"variant": "A6C G32U C58U", "self-cleavage kobs at 2500 uM GlcN6P": "< 1e-05"}, {"variant": "C8G G38U U57G", "self-cleavage kobs at 2500 uM GlcN6P": "< 1e-05"}, {"variant": "A33U U45A A52U G59U C61U", "self-cleavage kobs at 2500 uM GlcN6P": "< 1e-05"}, {"variant": "A12U G13U A36G A39C G51C C67A C71U", "self-cleavage kobs at 2500 uM GlcN6P": "< 1e-05"}, {"variant": "G7C G13C U31G C67A", "self-cleavage kobs at 2500 uM GlcN6P": "< 1e-05"}, {"variant": "A6G C58G G59C C68U", "self-cleavage kobs at 2500 uM GlcN6P": "< 1e-05"}, {"variant": "G9C G29C A42U", "self-cleavage kobs at 2500 uM GlcN6P": "< 1e-05"}, {"variant": "C34G U56A", "self-cleavage kobs at 2500 uM GlcN6P": "< 1e-05"}, {"variant": "A6G G13A G29U C70G", "self-cleavage kobs at 2500 uM GlcN6P": "< 1e-05"}, {"variant": "C8G G40A U45A", "self-cleavage kobs at 2500 uM GlcN6P": "< 1e-05"}]}, {"variants_of": "B1", "assay": "self-cleavage kobs at 10000 uM GlcN6P; higher = faster cleavage; RNA array", "conditions": "with glucosamine-6-phosphate", "procedure,_shortened": "as §1", "units": {"self-cleavage kobs at 10000 uM GlcN6P": "s⁻¹"}, "values": [{"variant": "G9A A52U G62C", "self-cleavage kobs at 10000 uM GlcN6P": "< 1e-05"}, {"variant": "C8G G9C A36G", "self-cleavage kobs at 10000 uM GlcN6P": "< 1e-05"}, {"variant": "A36C A39U", "self-cleavage kobs at 10000 uM GlcN6P": "< 1e-05"}, {"variant": "C8G G62C", "self-cleavage kobs at 10000 uM GlcN6P": "3.7e-05 ± 8.1e-06"}]}]}
